In paper PMC10726135:
The other results are listed elsewhere or left out. At the low end of the ranking, values are background and their order means little. Measured with an extract: partners may take part in the binding.

Target: T1, HNF4alpha2 (COS-7 nuclear extract) (UniProt P41235)
T1 sequence: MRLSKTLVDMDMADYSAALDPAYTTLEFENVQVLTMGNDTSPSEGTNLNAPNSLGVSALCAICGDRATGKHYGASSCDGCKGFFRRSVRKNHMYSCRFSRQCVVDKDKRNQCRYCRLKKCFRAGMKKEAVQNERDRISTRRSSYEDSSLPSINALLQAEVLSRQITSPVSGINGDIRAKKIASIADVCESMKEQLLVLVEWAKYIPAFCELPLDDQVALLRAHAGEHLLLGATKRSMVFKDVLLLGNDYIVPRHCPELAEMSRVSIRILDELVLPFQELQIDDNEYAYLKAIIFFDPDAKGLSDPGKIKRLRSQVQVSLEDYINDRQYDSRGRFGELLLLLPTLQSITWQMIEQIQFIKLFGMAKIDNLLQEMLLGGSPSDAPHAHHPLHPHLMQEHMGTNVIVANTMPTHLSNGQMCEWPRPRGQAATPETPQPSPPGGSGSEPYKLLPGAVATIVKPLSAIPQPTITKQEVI
Experiment: protein-binding microarray
Conditions: COS-7 nuclear extract on double-stranded Agilent 4x180k PBM; binding buffer, salt, pH and temperature not given; high values mean tight binding; double strand, one strand shown; sequences stand for … in …GCCTAGGGAGATTAGAGTATCGGTCGA

Row | Sequence | binding signal (log2 normalized intensity)
1 | AGTTCAATTTCCAACAAATGAAACTAAAGG | -1.15
2 | CAAATAGACTGGTTTGCACAGGTTACACAG | -1.13
3 | TGGGCAATGTCAACAAATACTGACCTGAGA | 0.677
4 | CCTCCAGCTCTTGGGGAACAATCGCCACTG | -1.19
5 | CCTGCCTCAGGCCGACCCCTGCCTGGACTG | 1.99
6 | CCTTCATGTTTTCACCAAGAGGGAAAAGAT | 0.499
7 | CAGGGAATGAGAATGGCCAGAGTTCCTGTG | -1.06
8 | AACAGACAAATGAAAGAGCTCAAATGACAG | -1.04
9 | GGGCCCTCTTCCAGCTGAGACAAGGTCCAG | 0.827
10 | ATGATCTTGCTCTCTTGTGCTCATGACAAA | 1.23
11 | AGTCTTAACCTCCTCTGTCACGATTCTTTT | 1.52
12 | ATCTGACCTTTGGGACATTCCCCAGGCTGC | 2.91
13 | CTCGGGTGTTCACAGGTGACCTCTGGCCAC | 4.24
14 | TCCTGATCTTTGACCTGGAGCATGACCCTT | 4.86
15 | GGGAGATAAGGCCCGGCTGATGGGACCAAA | -1.17
16 | CACAAAGCTTGGGTTCACATTCCAGCTCTG | -0.321
17 | TCTTCGAAGACACAAAGCTTGGGTTCACAT | 2.05
18 | GAAAGCAAGGGCCAGATCAAAGGCTTCTAG | -1.12
19 | TCCGGGCGATCCGGGCTCCGGGCGCCGCGC | -1.05
20 | ACTTATCTCAGCCTGGCTAAAACCCTGGCC | -1.17
21 | CCCAGGTCACCCACAACCTACCCTTTGCCC | 3.99
22 | GGCATTTCACAGAGCAAGGGTCCAGATTAG | 2.46
23 | ACACACACACACACAGCTTGGAGCTCCTTG | -1.1
24 | GTCGCTTGCCAGTATGCCACTGGTTAGTTC | 0.519
25 | GCTGCCAAACTGCCCAGCAGAAAAGCTGTA | -1.04

Row | Sequence | binding signal (log2 normalized intensity)
26 | GAAATGGGACCCAACTTTTGCTCTCTGGGA | -1.12
27 | TTGACCTTCAGCATCTTCAACTGTGTGAGC | 2.61
28 | TTCCCTAAGATTCTGGTCAAAGGTCAATGA | 7.36
29 | GACCTAGGTGAGCAGGCAGAGGTCAATGTC | 2.96
30 | ACAGTTTTGTGTGTTTAATGTTTTCATTCT | 1.93
31 | TGGGACCAAAGGTGAAGGGGTCACCTCGCT | 2.83
32 | TTGCACCTGGGCTGGAAAGGCCACCACAAA | -1.13
33 | TGCTGCCGCATTTTCCTTTGTTGGTTTTGC | 1.1
34 | ACCCTGTTTTGTAAACTCCCTTTGATGCGG | 0.875
35 | TGATGCATCAGACCCCTGAGTTTCGCAGCT | 2.16
36 | GGTGAGCTTTTATCTTAAGTGAGGTGGAAA | 1.3
37 | TGACCCCAGGGGAAACTCCATTTCCTTCTA | -0.479
38 | GTCTTAGTATTAACGGTGAGGGAGGAGACT | -1.19
39 | AAACCAAACTGCAGCTGCTGCACTGATAAG | -1.18
40 | GAATCAATGCCTGATTCCAAAGTCCACTTT | 6.91
41 | AGAGGCAAGGAAAGATAAATAGTGACAAAT | -1.08
42 | TGACCCCTAGCACTTCCCGAGTGAGGCAAT | 1.62
43 | CTCTCATTGGAATGAGCCTCCTGAAGATCC | 0.558
44 | AAAAGGGGACCGGCCTTTCCCGGCTGCCTA | -1.16
45 | AGACTTCAAAGCATTCCACATTCTCCACTG | -1.27
46 | GACCTTTATATGTCCACCTTATCTAATGCC | 1.15
47 | AGCAATCTTGAGGTTTCCACTGATAAAGTT | 1.11
48 | TATTTAGACTCAGCATGTCTTCTGACCTTT | 6.51
49 | GGAGAGCTGGACTTTCATCTGAGTCTCAGC | 1.85
50 | AAAGGCGTTTGCTCCCATCCCCCCAAAGGC | 4.99

Row | Sequence | binding signal (log2 normalized intensity)
51 | AGAACTATCAAACATTTTTGCAACATGAGG | 0.408
52 | CCCTCTCCTTTGGTGCAAATACCATCCCCA | 3.45
53 | CTAAACCTCTGCACACAGGATGTTTTCTCT | -0.0899
54 | GTCACTTCTGCTGCATTCTATTGGTCAAAG | 1.36
55 | CTTGTCTAAAAACATTGTGGAGCTCATGTA | 1.55
56 | TTTTCTTTTGGCATCTGTTGCTCAAGGAGG | 1.36
57 | AGGAGGGGACTTCAAAGGCTCCCCTAATCC | -1.08
58 | AAGGCAGGCAGCATGGAATGACTTTGGGGA | -1.16
59 | GAAGGGAAGCTCTGGGAGTGCCCTTGCCGA | -0.979
60 | TTTGGGAACCGTTAGCAACCGGAAGTGGCT | -1.01
61 | AGCGAGTAAGGCCCGTGAGATTGAAAGCTA | -1.15
62 | TAACTCCCCCTTCATCTGGGACGTGGCTCA | 1.38
63 | TATCAGTATCAATGAGATCTCCCCACATTC | 1.39
64 | GAGGAATTTGGACTTTTACTCTTAGAGATA | 2.95
65 | CCCCCTGTGATTACTTCCACTCTTGCAGAT | -0.136
66 | TATCTTCTGCTTTCAAAGCTCCAGTTCCAG | -1.14
67 | AAAGATGTTTAAATAGTGATAATGGATGGC | 1.11
68 | TGAGATACCACGTATCTTTCAGATCCCTTG | -0.867
69 | GCTATGATTGCGCCACTGCATTCCAGCCTG | -1.07
70 | TGGATTCGCCCAGCATAGCACACCAGCTCT | -1.2
71 | CCAGTTATTCATGTCCCTACCACATACAGA | 1.09
72 | CCTGTCACCTCCCTCAGAGCTCAGATGAAC | 0.177
73 | CAATCCCCCATCTATTTACAAAAGACCAGA | 2.42
